Measured values: a collection of fitness landscapes (doi:10.1038/s41467-024-54723-y)
Over roughly 18,000 sequences, “TetR repression strength (sort-seq, GFP reporter)” has its median near 0.23; the highest 2% begin near 0.68. The list shows a part of the results.

biological target: TetR (class B, Tn10) (UniProt P04483); assay: TetR repression strength (sort-seq, GFP reporter) (relative to tetO2 = 1); higher = stronger repression; conditions: E. coli
Procedure, shortened: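 Repression strength was calculated by subtracting the read-weighted mean bin from the top bin index plus one and dividing by the unaltered operator's value. The plasmid library was low-copy in E. coli SIG10-MAX, with eight randomized operator positions between a constitutive promoter and sfGFP and constitutive TetR. Cultures grew 5 h at 37 °C in LB containing 50 µg/mL chloramphenicol before 10^6 cells were sorted by FACS into 13 fluorescence bins, each sequenced on Illumina. Three independent transformations were averaged for members having ≥30 reads in all replicates and a CV ≤0.5.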

Chain of UniProt P04483 (P04483 whole entry): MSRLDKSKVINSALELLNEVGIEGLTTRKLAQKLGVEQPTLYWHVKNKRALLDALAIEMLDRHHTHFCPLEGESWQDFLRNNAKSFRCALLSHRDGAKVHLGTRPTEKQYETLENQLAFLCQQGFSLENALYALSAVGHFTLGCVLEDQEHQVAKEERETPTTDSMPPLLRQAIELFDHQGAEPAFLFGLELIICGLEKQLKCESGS

Row | Sequence | TetR repression strength
1 | TCCCCTTCAGTACGAGAGA | 0.251
2 | TCCCGTGGAGTAGGTGAGA | 0.24
3 | TCCCATGCAGTTTGCGAGA | 0.217
4 | TCCCGCGCAGTCGCTGAGA | 0.504
5 | TCCCTGGGAGTCTGGGAGA | 0.263
6 | TCCCGATTAGTGGCCGAGA | 0.329
7 | TCCCTAGAAGTGAGCGAGA | 0.255
8 | TCCCCGGCAGTCTAGGAGA | 0.123
9 | TCCCTTGCAGTGGACGAGA | 0.354
10 | TCCCGCAAAGTGCTGGAGA | 0.242
11 | TCCCTCTTAGTGGCGGAGA | 0.183
12 | TCCCTGCCAGTTCATGAGA | 0.0931
13 | TCCCGAGCAGTGGAGGAGA | 0.35
14 | TCCCATCAAGTGGGCGAGA | 0.0628
15 | TCCCGGTGAGTGTTTGAGA | 0.493
16 | TCCCAGTGAGTAACCGAGA | 0.381
17 | TCCCACAAAGTGTCCGAGA | 0.308
18 | TCCCAAGGAGTACGAGAGA | 0.498
19 | TCCCGCTCAGTCCGGGAGA | 0.506
20 | TCCCGCTTAGTGATTGAGA | 0.189
21 | TCCCACCGAGTCCTGGAGA | 0.254
22 | TCCCGCCAAGTGAGGGAGA | 0.591
23 | TCCCATACAGTAAGTGAGA | 0.201
24 | TCCCCTTCAGTGGTCGAGA | 0.05
25 | TCCCTTAAAGTCAGCGAGA | 0.245
26 | TCCCGATAAGTTACGGAGA | 0.213

Row | Sequence | TetR repression strength
27 | TCCCTTAGAGTTAATGAGA | 0.0915
28 | TCCCGCGAAGTCCGAGAGA | 0.224
29 | TCCCTCTTAGTTGCTGAGA | 0.53
30 | TCCCATCCAGTGTTCGAGA | 0.322
31 | TCCCTCCCAGTCCGGGAGA | 0.0326
32 | TCCCTTACAGTGCTGGAGA | 0.305
33 | TCCCGTTGAGTTGGGGAGA | 0.21
34 | TCCCTTTCAGTTTAGGAGA | 0.227
35 | TCCCTGCTAGTTCGGGAGA | 0.377
36 | TCCCGGTGAGTAAAGGAGA | 0.241
37 | TCCCCGCAAGTGAGAGAGA | 0.0338
38 | TCCCAGACAGTGGTTGAGA | 0.0646
39 | TCCCAGTGAGTTATGGAGA | 0.234
40 | TCCCCCCGAGTTTCGGAGA | 0.194
41 | TCCCTGCCAGTACTCGAGA | 0.335
42 | TCCCACCGAGTTAATGAGA | 0.312
43 | TCCCAGTTAGTGTATGAGA | 0.145
44 | TCCCGATCAGTGTGGGAGA | 0.174
45 | TCCCGGTTAGTGAATGAGA | 0.22
46 | TCCCGCGAAGTTGTGGAGA | 0.141
47 | TCCCTGGTAGTGGGTGAGA | 0.12
48 | TCCCGCCTAGTCGTTGAGA | 0.341
49 | TCCCGATTAGTTGGTGAGA | 0.182
50 | TCCCCATCAGTTTGTGAGA | 0.281
51 | TCCCTGGTAGTCTGAGAGA | 0.295
52 | TCCCGCTAAGTATAAGAGA | 0.207

Row | Sequence | TetR repression strength
53 | TCCCGTTCAGTCAGTGAGA | 0.473
54 | TCCCAAGGAGTCGTCGAGA | 0.196
55 | TCCCTATGAGTTTTGGAGA | 0.291
56 | TCCCTCCAAGTACCTGAGA | 0.309
57 | TCCCGTCAAGTCCCAGAGA | 0.339
58 | TCCCCATCAGTGAGGGAGA | 0.355
59 | TCCCGTGTAGTCGAAGAGA | 0.0462
60 | TCCCGCCTAGTGTGTGAGA | 0.105
61 | TCCCCGCGAGTGCCTGAGA | 0.104
62 | TCCCGAGAAGTGCCAGAGA | 0.312
63 | TCCCGTGGAGTGACGGAGA | 0.162
64 | TCCCATCAAGTCAGTGAGA | 0.14
65 | TCCCACGAAGTGTGGGAGA | 0.226
66 | TCCCATCGAGTCGCGGAGA | 0.213
67 | TCCCTAACAGTAGCCGAGA | 0.311
68 | TCCCGGAAAGTGCGAGAGA | 0.0942
69 | TCCCCGTGAGTCGACGAGA | 0.377
70 | TCCCCGGTAGTAACGGAGA | 0.249
71 | TCCCCTCAAGTGGCGGAGA | 0.159
72 | TCCCCGCTAGTAAGAGAGA | 0.247
73 | TCCCTTGTAGTGGCCGAGA | 0.442
74 | TCCCAGAAAGTATGGGAGA | 0.248
75 | TCCCTCGAAGTGCTCGAGA | 0.0305
76 | TCCCTCGAAGTCGACGAGA | 0.0272
77 | TCCCGTTTAGTACTTGAGA | 0.00451
78 | TCCCTGGGAGTATTTGAGA | 0.155

Row | Sequence | TetR repression strength
79 | TCCCCGGCAGTGTTTGAGA | 0.09
80 | TCCCAGCGAGTATTCGAGA | 0.286
81 | TCCCGCTAAGTCGCGGAGA | 0.184
82 | TCCCGTACAGTATAGGAGA | 0.0753
83 | TCCCAGTGAGTGAAGGAGA | 0.0721
84 | TCCCATTAAGTGAAGGAGA | 0.258
85 | TCCCCGGGAGTACGTGAGA | 0.17
86 | TCCCGCGGAGTTGTTGAGA | 0.197
87 | TCCCGTCCAGTCACCGAGA | 0.286
88 | TCCCTACGAGTTAAGGAGA | 0.187
89 | TCCCGTGGAGTACGCGAGA | 0.245
90 | TCCCAGGAAGTCTGGGAGA | 0.294
91 | TCCCTTCCAGTTTCAGAGA | 0.819
92 | TCCCGCGAAGTACGCGAGA | 0.434
93 | TCCCCGGGAGTCCACGAGA | 0.252
94 | TCCCAAGGAGTGTGAGAGA | 0.333
95 | TCCCTTGTAGTGGTAGAGA | 0.35
96 | TCCCTTGAAGTTGCAGAGA | 0.117
97 | TCCCCTATAGTGGTGGAGA | 0.201
98 | TCCCTCCCAGTCTAAGAGA | 0.402
99 | TCCCCGACAGTGTGAGAGA | 0.325
100 | TCCCGGACAGTGCAGGAGA | 0.266
101 | TCCCGGAAAGTGGTGGAGA | 0.128
102 | TCCCGGGAAGTATGCGAGA | 0.0806
